Columns and labels:
[1] = biological target: T1, BCMW37 (recombinant human BCMA antigen) (human, UniProt Q02223 1-54, limits assumed); experiment: SPR, BCMA binding after physiological stress
T1 construct: also called BCMA BCMW37 chain; human BCMA (SPR antigen)
T1 sequence (looked up): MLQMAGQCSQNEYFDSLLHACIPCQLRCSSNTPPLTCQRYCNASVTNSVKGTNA

[2] = biological target: T1, BCMW37 (recombinant human BCMA antigen); experiment: SPR; antigen BCMW37
[3] = biological target: T2, human GPRC5D (G-protein coupled receptor family C group 5 member D) on cells (human, UniProt Q9NZD1 1-345); experiment: flow cytometry, MM.1R BCMA KO cells, 1 h 37C; Run 2
T2 construct: Target on H929 or MM.1R BCMA knockout cells, K562 cells expressing human GPRC5D and HEK293 cells of the cell microarray
T2 sequence (Q9NZD1 whole entry): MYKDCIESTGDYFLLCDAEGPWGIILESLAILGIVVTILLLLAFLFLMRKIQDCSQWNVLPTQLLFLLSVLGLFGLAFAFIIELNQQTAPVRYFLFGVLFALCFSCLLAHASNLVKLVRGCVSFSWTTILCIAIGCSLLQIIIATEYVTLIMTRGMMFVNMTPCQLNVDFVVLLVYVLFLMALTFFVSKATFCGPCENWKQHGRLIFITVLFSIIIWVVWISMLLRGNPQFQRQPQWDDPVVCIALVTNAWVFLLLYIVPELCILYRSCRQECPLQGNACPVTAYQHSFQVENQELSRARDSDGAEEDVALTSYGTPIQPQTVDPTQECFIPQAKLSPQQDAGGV

[4] = biological target: T3, human BCMA (B cell maturation antigen, TNFRSF17) on cells (human, UniProt Q02223 1-184); experiment: flow cytometry, H929 GPRC5D KO cells, 1 h 37C; Run 1
T3 construct: whole, on cells; Target on H929 or MM.1R GPRC5D knockout cells, K562 cells expressing human BCMA, HEK293 cells of the cell microarray, and BCMA-only lymphoma lines; also called CD269; surface BCMA
T3 sequence (looked up): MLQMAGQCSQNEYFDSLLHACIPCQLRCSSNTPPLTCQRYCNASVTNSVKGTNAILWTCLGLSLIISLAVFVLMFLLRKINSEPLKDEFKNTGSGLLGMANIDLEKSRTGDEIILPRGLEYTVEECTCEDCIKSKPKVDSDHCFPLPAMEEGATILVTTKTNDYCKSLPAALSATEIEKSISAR
Method: (§1) First, FACS-based binding for GPRC5D and BCMA binding arms of the trispecific molecule was determined by measuring the effective concentration (EC) range from a dose-response curve using a 4-parameter fit at 37° C. for 1 hr. This was assessed using an H929 suite of cells (WT, GPRC5D-KO, BCMA-KO, and GPRC5D/BCMA KO), and a similar MM.1R suite. Cell based EC₅₀ is approximately 13 nM for WT H929 (FIGS. 2A-2D, Table 7) and 2.4 nM for WT MM.1R (FIGS. 3A-3D, Table 8). A clear avidity affect is observed as EC₅₀ and Bmax are both reduced in GPRC5D-KO and BCMA-KO lines which test monovalent binding of target binding arms (Table 7). Next, cell-based EC₅₀ was determined for the CD3-binding Fab arm using purified Pan T cells from three random donors. […] Next, dose responsive binding was assessed at 4° C. to remove any potential biological effects. As shown in FIGS. 5A-5C, binding is stronger (50-100 nM) at 4° C., compared to 37° C., which may indicate internalization. Additionally, two expression lots of BGCB463 (BGCB463.003 from transient transfection and BGCB463.004 from a stable transfection pool), were directly compared with binding to H929, MM.1R, and Pan T cells and no differences were noted (FIGS. 6A-6C).

[5] = biological target: T3, human BCMA (B cell maturation antigen, …); experiment: flow cytometry, H929 GPRC5D KO cells, 1 h 37C; Run 5
Method: as §1

[6] = biological target: T4, human CD3 (CD3ε of the TCR/CD3 complex) on primary human pan T cells (human, UniProt P07766); experiment: flow cytometry, human pan T cells, Donor 2, 1 h 37C; Run 4
T4 construct: whole, on cells; On T cells CD3ε stands in the whole TCR/CD3 complex
T4 sequence (P07766 23-207, one chain of several): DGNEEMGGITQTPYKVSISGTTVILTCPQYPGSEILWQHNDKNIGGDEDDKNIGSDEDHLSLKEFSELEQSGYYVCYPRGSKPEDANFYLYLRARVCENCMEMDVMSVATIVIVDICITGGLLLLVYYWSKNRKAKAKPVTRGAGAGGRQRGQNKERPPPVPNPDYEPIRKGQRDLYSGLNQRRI
Method: (§2) For binding of BGCB463 to human and cynomolgus Pan T cells, three human donors (Hemacare) were selected, quickly thawed, resuspended, and aliquoted into a 96-well plate at 1×10⁶ cells/mL. Cells were then washed, Fc blocked if necessary (Innovex), and stained with viability dye (Invitrogen). BGCB463 and its corresponding isotype (B23B251) were diluted in complete media to an initial concentration of 2 μM and 1:3 serial dilutions in duplicate were performed for a dose-response curve. The cells were incubated with molecules at 4° C. or 37° C. for 1 hour. When necessary, incubation with 90% human serum (Sigma) was also performed as described above.
(§3) First, FACS-based binding for GPRC5D and BCMA binding arms of the trispecific molecule was determined by measuring the effective concentration (EC) range from a dose-response curve using a 4-parameter fit at 37° C. for 1 hr. This was assessed using an H929 suite of cells (WT, GPRC5D-KO, BCMA-KO, and GPRC5D/BCMA KO), and a similar MM.1R suite. Cell based EC₅₀ is approximately 13 nM for WT H929 (FIGS. 2A-2D, Table 7) and 2.4 nM for WT MM.1R (FIGS. 3A-3D, Table 8). […] Next, cell-based EC₅₀ was determined for the CD3-binding Fab arm using purified Pan T cells from three random donors. […] Next, dose responsive binding was assessed at 4° C. to remove any potential biological effects. […]

[7] = biological target: T4, human CD3 (CD3ε of the TCR/CD3 complex) …; experiment: flow cytometry, human pan T cells, Donor 2, 1 h 37C; Run 5
Method: as §2, §3

[8] = biological target: T3, human BCMA (B cell maturation antigen, …); experiment: flow cytometry on H929 GPRC5D KO cells (BCMA arm), 1 hr 37 C, AF647 secondary detection
Method: FIGS. 2A-2D. BGCB463 (circles) or negative control B23B251 (triangles) were all incubated with H929 wild type (WT) (FIG. 2A), H929-GPRC5D knock out (KO) (FIG. 2B), H929-BCMA KO (FIG. 2C), and H929-GPRC5D/BCMA KO (FIG. 2D) cells for 1 hr at 37° C. at a starting concentration of 2 μM. After secondary detection with AF647-labeled material, the MFI signal was analyzed to generate an EC₅₀ and EC₉₀. Curves are representative of five independent experiments. EC₅₀ or EC₉₀ values are averages of these.
First, FACS-based binding for GPRC5D and BCMA binding arms of the trispecific molecule was determined by measuring the effective concentration (EC) range from a dose-response curve using a 4-parameter fit at 37° C. for 1 hr. This was assessed using an H929 suite of cells (WT, GPRC5D-KO, BCMA-KO, and GPRC5D/BCMA KO), and a similar MM.1R suite. Cell based EC₅₀ is approximately 13 nM for WT H929 (FIGS. 2A-2D, Table 7) and 2.4 nM for WT MM.1R (FIGS. 3A-3D, Table 8). A clear avidity affect is observed as EC₅₀ and Bmax are both reduced in GPRC5D-KO and BCMA-KO lines which test monovalent binding of target binding arms (Table 7). Next, cell-based EC₅₀ was determined for the CD3-binding Fab arm using purified Pan T cells from three random donors. […] Next, dose responsive binding was assessed at 4° C. to remove any potential biological effects. […]

[9] = biological target: T2, human GPRC5D (G-protein coupled …); experiment: flow cytometry on MM.1R BCMA KO cells (GPRC5D arm), 1 hr 37 C, AF647 secondary detection
Method: as §1

B1: BGCB491 (other)
heavy: QVQLQQSGPRLVRPSQTLSLTCAISGDSVFNNNAAWSWIRQSPSRGLEWLGRTYYRSKWLYDYAVSVKSRITVNPDTSRNQFTLQLNSVTPEDTALYYCARGYSSSFDYWGQGTLVTVSSASTKGPSVFPLAPSSKSTSGGTAALGCLVKDYFPEPVTVSWNSGALTSGVHTFPAVLQSSGLYSLSSVVTVPSSSLGTQTYICNVNHKPSNTKVDKKVEPKSCDKTHTCPPCPAPEAAGGPSVFLFPPKPKDTLMISRTPEVTCVVVSVSHEDPEVKFNWYVDGVEVHNAKTKPREEQYNSTYRVVSVLTVLHQDWLNGKEYKCKVSNKALPAPIEKTISKAKGQPREPQVYTLPPSREEMTKNQVSLSCAVKGFYPSDIAVEWESNGQPENNYKTTPPVLDSDGSFFLVSKLTVDKSRWQQGNVFSCSVMHEALHNRFTQKSLSLSPGKGGGGSGGGGSGGGGSGGGGS[letters of about 100 residues not shown]QFPHTFGQGTKLEIKGGSEGKSSGSGSESKSTGGSQVTLKESGPVLVKPTETLTLTCTVSGFSLTNIRMSVSWIRQPPGKALEWLAHIFSNDEKSYSTSLKSRLTISRDTSKSQVVLTLTNVDPVDTATYYCARMRLPYGMDVWGQGTTVTVSS
light: QSALTQPASVSGSPGQSITISCTGTSSNIGTYKFVSWYQQHPDKAPKVLLYEVSKRPSGVSSRFSGSKSGNTASLTISGLQAEDQADYHCVSYAGSGTLLFGGGTKLTVLGQPKAAPSVTLFPPSSEELQANKATLVCLISDFYPGAVTVAWKADSSPVKAGVETTTPSKQSNNKYAASSYLSLTPEQWKSHRSYSCQVTHEGSTVEKTVAPTECS
chain: EIVLTQSPGTLSLSPGERATLSCRASQSISSSFLTWYQQKPGQAPRLLIYGASSRATGIPDRFSGGGSGTDFTLTISRLEPEDFAVYYCQHYGSSPMYTFGQGTKLEIKGGSEGKSSGSGSESKSTGGS[letters of about 100 residues not shown]DEGYSSGHYYGMDVWGQGTTVTVSSEPKSSDKTHTCPPCPAPEAAGGPSVFLFPPKPKDTLMISRTPEVTCVVVSVSHEDPEVKFNWYVDGVEVHNAKTKPREEQYNSTYRVVSVLTVLHQDWLNGKEYKCKVSNKALPAPIEKTISKAKGQPREPQVYTLPPSREEMTKNQVSLWCLVKGFYPSDIAVEWESNGQPENNYKTTPPVLDSDGSFFLYSKLTVDKSRWQQGNVFSCSVMHEALHNHYTQKSLSLSPGK
notes: Trispecific IgG1 antibody (L234A, L235A, D265S); Heavy chain 1 = anti-CD3 (CD3B376) Fab heavy chain, hole and RF mutations, with C-terminal anti-GPRC5D scFv (GC5B680); Heavy chain 2 = anti-BCMA scFv (BCMB519) - Fc knob; also called JNJ-79635322; BCMA×GPRC5D×CD3 trispecific mAb
Question: With B1 as the binder, how does the Kd [1] read?
Answer: 0.143 nM

B2: BGCB463 (other)
heavy: QVQLQQSGPRLVRPSQTLSLTCAISGDSVFNNNAAWSWIRQSPSRGLEWLGRTYYRSKWLYDYAVSVKSRITVNPDTSRNQFTLQLNSVTPEDTALYYCARGYSSSFDYWGQGTLVTVSSASTKGPSVFPLAPSSKSTSGGTAALGCLVKDYFPEPVTVSWNSGALTSGVHTFPAVLQSSGLYSLSSVVTVPSSSLGTQTYICNVNHKPSNTKVDKKVEPKSCDKTHTCPPCPAPEAAGGPSVFLFPPKPKDTLMISRTPEVTCVVVSVSHEDPEVKFNWYVDGVEVHNAKTKPREEQYNSTYRVVSVLTVLHQDWLNGKEYKCKVSNKALPAPIEKTISKAKGQPREPQVYTLPPSREEMTKNQVSLSCAVKGFYPSDIAVEWESNGQPENNYKTTPPVLDSDGSFFLVSKLTVDKSRWQQGNVFSCSVMHEALHNRFTQKSLSLSPGK
light: B1 light
chain: [letters of about 100 residues not shown]QFPHTFGQGTKLEIKGGSEGKSSGSGSESKSTGGSQVTLKESGPVLVKPTETLTLTCTVSGFSLTNIRMSVSWIRQPPGKALEWLAHIFSNDEKSYSTSLKSRLTISRDTSKSQVVLTLTNVDPVDTATYYCARMRLPYGMDVWGQGTTVTVSSEPKSSDKTHTCPPCPAPEAAGGPSVFLFPPKPKDTLMISRTPEVTCVVVSVSHEDPEVKFNWYVDGVEVHNAKTKPREEQYNSTYRVVSVLTVLHQDWLNGKEYKCKVSNKALPAPIEKTISKAKGQPREPQVYTLPPSREEMTKNQVSLWCLVKGFYPSDIAVEWESNGQPENNYKTTPPVLDSDGSFFLYSKLTVDKSRWQQGNVFSCSVMHEALHNHYTQKSLSLSPGKGGSEGKSSGSGSESKSTGGSEIVLTQSPGTLSLSPGERATLSCRASQSISSSFLTWYQQKPGQAPRLLIYGASSRATGIPDRFSGGGSGTDFTLTISRLEPEDFAVYYCQHYGSSPMYTFGQGTKLEIKGGSEGKSSGSGSESKSTGGS[letters of about 100 residues not shown]DEGYSSGHYYGMDVWGQGTTVTVSS
notes: Trispecific IgG1 antibody (L234A, L235A, D265S); Heavy chain 1 = anti-CD3 (CD3B376) Fab heavy chain with hole and RF mutations; also called BGCB463.003; BGCB463.004
Question: Which results are given for B2?
Answer: Kd [2]: 0.84 nM; EC50 [3]: 16.6 nM; EC50 [4]: 106 nM; EC50 [5]: 457 nM; EC50 [6]: 192 nM; EC50 [7]: 132 nM; EC50 (read off the curve) [8]: ~0.1 µM; EC50 (read off the curve) [9]: ~10 nM

From patent US20220267438A1 (Janssen / Centocor, published 2022)
